Experimental data as given in PMC4336329 (PLoS ONE, 2015).
The whole screen tested about 310,000 compounds, of which about 2,200 (0.71%) showed an effect of 50% or more. The effect is printed as a negative number. Some of the results follow.

biological target: human ether-à-go-go-related gene (hERG) potassium channel (human, UniProt Q12809); experiment: primary screen, population patch clamp on CHO cells stably expressing hERG
Sequence (Q12809 whole entry, looked up): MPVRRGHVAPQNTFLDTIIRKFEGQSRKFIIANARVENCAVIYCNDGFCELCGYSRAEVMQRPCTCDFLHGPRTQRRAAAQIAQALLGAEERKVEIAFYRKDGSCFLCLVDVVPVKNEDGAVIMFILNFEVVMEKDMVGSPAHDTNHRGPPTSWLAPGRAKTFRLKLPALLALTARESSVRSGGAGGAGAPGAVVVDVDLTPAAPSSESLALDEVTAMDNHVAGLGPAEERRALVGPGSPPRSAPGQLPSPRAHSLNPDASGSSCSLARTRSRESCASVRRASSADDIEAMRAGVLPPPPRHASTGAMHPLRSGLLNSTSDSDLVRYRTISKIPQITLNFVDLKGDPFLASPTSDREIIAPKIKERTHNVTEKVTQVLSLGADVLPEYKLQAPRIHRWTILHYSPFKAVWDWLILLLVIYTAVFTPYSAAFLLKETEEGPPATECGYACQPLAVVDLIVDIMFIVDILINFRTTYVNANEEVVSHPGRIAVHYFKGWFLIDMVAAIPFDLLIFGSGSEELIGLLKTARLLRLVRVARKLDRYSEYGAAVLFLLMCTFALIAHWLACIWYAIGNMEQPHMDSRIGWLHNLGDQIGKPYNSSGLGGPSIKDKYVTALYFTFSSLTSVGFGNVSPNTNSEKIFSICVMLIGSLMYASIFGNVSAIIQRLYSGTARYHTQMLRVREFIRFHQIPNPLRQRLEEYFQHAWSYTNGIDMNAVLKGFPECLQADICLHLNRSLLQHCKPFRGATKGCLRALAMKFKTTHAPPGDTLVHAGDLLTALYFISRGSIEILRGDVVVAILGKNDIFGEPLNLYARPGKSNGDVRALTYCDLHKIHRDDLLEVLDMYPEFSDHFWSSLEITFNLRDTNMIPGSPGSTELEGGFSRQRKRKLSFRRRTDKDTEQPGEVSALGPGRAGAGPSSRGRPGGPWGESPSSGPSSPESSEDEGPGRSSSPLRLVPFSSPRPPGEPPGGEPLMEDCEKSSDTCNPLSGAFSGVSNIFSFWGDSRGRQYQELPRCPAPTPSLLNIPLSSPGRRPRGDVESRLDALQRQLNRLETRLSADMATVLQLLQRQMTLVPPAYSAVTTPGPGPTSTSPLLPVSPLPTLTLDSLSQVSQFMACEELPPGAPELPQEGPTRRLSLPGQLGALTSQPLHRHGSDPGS

| Structure (SMILES) | hERG current change (%, negative = inhibition) at 1uM |
| --- | --- |
| COC(=O)Nc1ncc(CN2CCC(c3ccccc3)CC2)s1 | -9.17% |
| COc1ccc2ccccc2c1C1CC(=O)N2CN(C3CCCCC3)CSC2=C1C#N (centres unmarked) | 18.5% |
| O=C1CN(c2ccccc2)C(=S)N1c1ccccc1.[Na+] | 10.1% |
| CC(Sc1nnc(-c2ccc(C(C)(C)C)cc2)n1C)C(N)=O (centres unmarked) | 14.8% |
| CCNC(=S)NNC(=O)Cn1nc(C)cc1C | 0.389% |
| c1ccc(-c2cnnc(N3CCCCC3)n2)cc1 | -5.79% |
| Cc1ccccc1NS(=O)(=O)c1ccc(C(=O)NCCCN2CCCC2=O)cc1 | 8.15% |
| NNC(=O)c1cc(C2CC2)nc2ccc(Br)cc12 | 10.5% |
| COc1cc(-c2nc3n(n2)C(c2ccncc2)C2=C(CCCC2=O)N3)cc(OC)c1OC (centres unmarked) | 26% |
| CCNC(=O)NC(=O)C(C)OC(=O)CNS(=O)(=O)c1c(Cl)cc(Br)cc1Cl (centres unmarked) | 9.18% |
| Cc1ccc(-c2nn(-c3ccc(F)cc3)cc2C(=O)NCC(c2cccs2)N2CCOCC2)cc1 (centres unmarked) | 5.75% |
| Cc1ccccc1C(=O)NC(=S)N(CCO)Cc1ccccc1 | 11.7% |
| O=C(/C=C/c1cccs1)N1CCC2(CC1)Oc1ccc(Cl)cc1C(=O)C21CC(c2ccc(Cl)cc2)=NO1 (centres unmarked) | 11.9% |
| O=C(COC(=O)c1ccccc1Cc1ccccc1)Nc1ccc(SC(F)F)cc1 | 4.53% |
| CCNS(=O)(=O)c1ccc(S(=O)(=O)N(Cc2ccccn2)C2CCCCC2)cc1 | 13.4% |
| O=C(NN1C(=O)NC2(CCCCC2)C1=O)c1ccc(-c2ccccc2Cl)o1 | 1.11% |
| O=C1C=C(c2ccc(Br)c3ccccc23)C[C@@H](c2ccc3c(c2)OCO3)C1 | 0.659% |
| COc1cc2[nH]c(=O)n(CCC(=O)NC3CCCC3)c(=O)c2cc1OC | 11.2% |
| Cc1ccc2nc(-c3cccc(Br)c3)cc(C(=O)NC3CC3)c2c1 | 18.5% |
| CN(C(=O)c1cccc(Br)c1)C1CCS(=O)(=O)C1 (centres unmarked) | 10.5% |
| O=[N+]([O-])c1ccc2c(c1)[nH]c(=S)n2-c1ccccc1 | 8.39% |
| O=C(CN1CCCCCC1)Nc1ccc([N+](=O)[O-])cc1Br | 10.1% |

| Structure (SMILES) | hERG current change (%, negative = inhibition) at 1uM |
| --- | --- |
| COC(=O)c1c(NC(=O)c2nn(C)cc2Cl)sc2c1CCCC2 | 19.3% |
| Cc1cccc(C(=O)NN2S(=O)(=O)c3ccccc3S2(=O)=O)c1 | 16.2% |
| COc1cc(C(=O)Nc2ccc(S(=O)(=O)Nc3cc(C)nc(C)n3)cc2)cc(OC)c1OC | 8.09% |
| Cc1ccc(Nc2c([N+](=O)[O-])ccc3nonc23)c(C)c1 | 14.6% |
| CCOC(=O)C1=C(N2CCCCC2)c2cc3c(n2C1=O)CCCC3 | 0.903% |
| Cc1cc(C)cc(C(=O)Nc2cccc(NC(=O)c3ccco3)c2)c1 | 10.4% |
| CCOC(=O)C1=C(C)N(C)C(=O)NC1c1c(OC)ccc2ccccc12 (centres unmarked) | 13.6% |
| CCOC(=O)c1nnn(-c2nonc2N)c1CSc1ccccc1 | -3.14% |
| COc1ccc(CN(C)C(=O)c2ccc(Cl)c(S(=O)(=O)NCc3cccnc3)c2)cc1F | -2.73% |
| COc1ccccc1NS(=O)(=O)c1ccc(C)c(C(=O)NCCCN2CCCC2=O)c1 | 13.2% |
| Cn1cnc(S(=O)(=O)NC2CCN(Cc3ccccc3)CC2)c1 | 18% |
| CC(O)CN(C)CC/C=C1/c2ccccc2CSc2ccccc21.Cl (centres unmarked) | 1.02% |
| Cc1cc(C)nc(NC(=O)c2ccc(Cl)cc2[N+](=O)[O-])c1 | 1.78% |
| O=S1(=O)C=CC(c2ccccc2)C1 (centres unmarked) | 9.87% |
| CCCCCN(C(=O)CCC(=O)OCC(=O)NCc1ccc(OC)cc1)c1c(N)n(CCCC)c(=O)[nH]c1=O | 3.41% |
| O=c1[nH]c(CN2CCN(S(=O)(=O)c3ccc4c(c3)OCCO4)CC2)nc2sc3c(c12)CCCC3 | 9.24% |
| CCCCN(CC)CCNC(=O)c1cc2c(=O)n(C)c3ccccc3c2n1C | -1.56% |
| CC(C)n1nc(C(=O)Oc2ccc(Cl)cc2)c2ccccc2c1=O | 9.03% |
| Cc1cc(=O)[nH]c(-c2cccnc2)n1 | 17.4% |
| COc1ccc(Br)cc1CN(C)CC(=O)Nc1cc(Cl)ccc1Cl | 13.8% |
| Cc1ccccc1-n1nnc2c(=O)oc3ccccc3c21 | 11.7% |
| COc1cc(C(=O)OC2CCN(C)CC2)cc(OC)c1OC.Cl | 4.07% |
